# Measurements as given in the supplement of paper PMC8728848.
# This is one part of the list.
# Tests used:
# Test in all cases: glycan array binding signal (z-score within array); higher = stronger binding
# Details in all cases: glycan notation: IUPAC condensed, linker removed
# [1] = molecular target: Fuc(a1-2)[GalNAc(a1-3)]Gal(b1-3)GlcNAc(b1-6)GalNAc
# How it was run: (§1)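 Glycan array data were curated from 3228 arrays in the Consortium for Functional Glycomics database and kept only where the protein sequence was available. Glycan names were converted to IUPAC-condensed notation, and columns mapping to the same glycan were averaged. The binding signal is a within-array Z-score, averaged across arrays of the same protein sequence at different concentrations or buffers and across linkers. Negative Z-scores can be read as non-binding.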
# [2] = molecular target: Fuc(a1-2)[GalNAc(a1-3)]Gal(b1-4)Glc
# How it was run: as §1
# [3] = molecular target: Fuc(a1-2)[GalNAc(a1-3)]Gal(b1-4)GlcNAc
# How it was run: as §1
# [4] = molecular target: Fuc(a1-2)[GalNAc(a1-3)]Gal(b1-4)GlcNAc(b1-2)Man
# How it was run: as §1
# [5] = molecular target: Fuc(a1-2)[GalNAc(a1-3)]Gal(b1-4)GlcNAc(b1-2)Man(a1-3)[Fuc(a1-2)[GalNAc(a1-3)]Gal(b1-4)GlcNAc(b1-2)Man(a1-6)]Man(b1-4)GlcNAc(b1-4)GlcNAc
# How it was run: as §1
# [6] = molecular target: Fuc(a1-2)[GalNAc(a1-3)]Gal(b1-4)GlcNAc(b1-2)Man(a1-3)[Fuc(a1-2)[GalNAc(a1-3)]Gal(b1-4)GlcNAc(b1-2)Man(a1-6)]Man(b1-4)GlcNAc(b1-4)[Fuc(a1-6)]GlcNAc
# How it was run: as §1
# [7] = molecular target: Fuc(a1-2)[GalNAc(a1-3)]Gal(b1-4)GlcNAc(b1-3)Gal(b1-4)GlcNAc
# How it was run: as §1
# [8] = molecular target: Fuc(a1-2)[GalNAc(a1-3)]Gal(b1-4)GlcNAc(b1-3)Gal(b1-4)GlcNAc(b1-3)Gal(b1-4)GlcNAc
# How it was run: as §1
# [9] = molecular target: Fuc(a1-2)[GalNAc(a1-3)]Gal(b1-4)GlcNAc(b1-3)GalNAc
# How it was run: as §1
# [10] = molecular target: Fuc(a1-2)[GalNAc(a1-3)]Gal(b1-4)GlcNAc(b1-3)[Fuc(a1-2)[GalNAc(a1-3)]Gal(b1-4)GlcNAc(b1-6)]GalNAc
# How it was run: as §1
# [11] = molecular target: Fuc(a1-2)[GalNAc(a1-3)]Gal(b1-4)GlcNAc(b1-6)GalNAc
# How it was run: as §1
# [12] = molecular target: Fuc(a1-2)[GalNAc(a1-3)]Gal(b1-4)[Fuc(a1-3)]GlcNAc
# How it was run: as §1
# [13] = molecular target: Fuc(a1-2)[GalNAc(a1-3)]Gal(b1-4)[Fuc(a1-3)]GlcNAc(b1-3)GalNAc
# How it was run: as §1
# [14] = molecular target: Fuc(a1-2)[GalNAc(a1-4)]Gal(b1-4)GlcNAc
# How it was run: as §1
# [15] = molecular target: Fuc(a1-2)[GalNAc(b1-3)]Gal
# How it was run: as §1
# [16] = molecular target: Fuc(a1-3)GlcNAc
# How it was run: as §1
# [17] = molecular target: Fuc(a1-3)[Gal(b1-4)]Glc6S
# How it was run: as §1
# [18] = molecular target: Fuc(a1-3)[Gal(b1-4)]GlcNAc
# How it was run: as §1
# [19] = molecular target: Fuc(a1-3)[Gal(b1-4)]GlcNAc(b1-2)Man
# How it was run: as §1
# [20] = molecular target: Fuc(a1-3)[Gal(b1-4)]GlcNAc(b1-2)Man(a1-3)[Fuc(a1-3)[Gal(b1-4)]GlcNAc(b1-2)Man(a1-6)]Man(b1-4)GlcNAc(b1-4)GlcNAc
# How it was run: as §1
# [21] = molecular target: Fuc(a1-3)[Gal(b1-4)]GlcNAc(b1-2)Man(a1-3)[Fuc(a1-3)[Gal(b1-4)]GlcNAc(b1-2)Man(a1-6)]Man(b1-4)GlcNAc(b1-4)[Fuc(a1-6)]GlcNAc
# How it was run: as §1
# [22] = molecular target: Fuc(a1-3)[Gal(b1-4)]GlcNAc(b1-3)Gal(b1-3)[Fuc(a1-4)]GlcNAc
# How it was run: as §1
# [23] = molecular target: Fuc(a1-3)[Gal(b1-4)]GlcNAc(b1-3)Gal(b1-4)[Fuc(a1-3)]GlcNAc
# How it was run: as §1
# [24] = molecular target: Fuc(a1-3)[Gal(b1-4)]GlcNAc(b1-3)Gal(b1-4)[Fuc(a1-3)]GlcNAc(b1-3)Gal(b1-4)[Fuc(a1-3)]GlcNAc
# How it was run: as §1
# [25] = molecular target: Fuc(a1-3)[Gal(b1-4)]GlcNAc(b1-3)GalNAc
# How it was run: as §1
# [26] = molecular target: Fuc(a1-3)[Gal(b1-4)]GlcNAc(b1-6)GalNAc
# How it was run: as §1
# [27] = molecular target: Fuc(a1-3)[Gal(b1-4)]GlcNAc(b1-6)[Gal(b1-3)GlcNAc(b1-3)]Gal(b1-4)Glc
# How it was run: as §1
# [28] = molecular target: Fuc(a1-3)[Gal(b1-4)]GlcNAc6S
# How it was run: as §1
# [29] = molecular target: Fuc(a1-3)[Gal3S(b1-4)]Glc
# How it was run: as §1
# [30] = molecular target: Fuc(a1-3)[Gal3S(b1-4)]GlcNAc
# How it was run: as §1
# [31] = molecular target: Fuc(a1-3)[Gal3S(b1-4)]GlcNAc6S
# How it was run: as §1
# [32] = molecular target: Fuc(a1-3)[GalNAc(b1-4)]GlcNAc
# How it was run: as §1
# [33] = molecular target: Fuc(a1-3)[GalNAc(b1-4)]GlcNAc6S
# How it was run: as §1
# [34] = molecular target: Fuc(a1-4)GlcNAc
# How it was run: as §1
# [35] = molecular target: Fuc(b1-3)GlcNAc
# How it was run: as §1
# [36] = molecular target: Gal(a1-2)Gal
# How it was run: as §1
# [37] = molecular target: Gal(a1-3)Gal
# How it was run: as §1
# [38] = molecular target: Gal(a1-3)Gal(b1-3)GlcNAc
# How it was run: as §1
# [39] = molecular target: Gal(a1-3)Gal(b1-3)GlcNAc(b1-2)Man
# How it was run: as §1
# [40] = molecular target: Gal(a1-3)Gal(b1-3)GlcNAc(b1-2)Man(a1-3)[Gal(a1-3)Gal(b1-3)GlcNAc(b1-2)Man(a1-6)]Man(b1-4)GlcNAc(b1-4)GlcNAc
# How it was run: as §1
# [41] = molecular target: Gal(a1-3)Gal(b1-3)GlcNAc(b1-3)GalNAc
# How it was run: as §1
# [42] = molecular target: Gal(a1-3)Gal(b1-3)GlcNAc(b1-6)GalNAc
# How it was run: as §1
# [43] = molecular target: Gal(a1-3)Gal(b1-3)[Fuc(a1-4)]GlcNAc(b1-2)Man(a1-3)[Gal(a1-3)Gal(b1-3)[Fuc(a1-4)]GlcNAc(b1-2)Man(a1-6)]Man(b1-4)GlcNAc(b1-4)GlcNAc
# How it was run: as §1
# [44] = molecular target: Gal(a1-3)Gal(b1-4)Glc
# How it was run: as §1
# [45] = molecular target: Gal(a1-3)Gal(b1-4)GlcNAc
# How it was run: as §1
binder,measurement,setting,value
rCnSL-proB (Clitocybe nebularis) (protein) PTFSPIFALLAFLPFGTLASLLPQTQLVFRINPNLPGPNDVFVGYRGTNNVVGAIYERDGIKDTPMNNGADAELGPGSYITDDLFTAQIFASGSAGNNPGTTATVCKIYADGVQWRGAPKGYLPVLYFGNGQAAEQTRQTYLQGLDIPGTAIRFANLAKTPNQGPTAPRQMVVPSGGLQTLLKASCFPANHAALPQVLSYFNVRAALPPGWNIRTGPEFPNWTN,glycan array binding signal (z-score),[1],-0.492
same,glycan array binding signal (z-score),[2],0.269
same,glycan array binding signal (z-score),[3],-0.513
same,glycan array binding signal (z-score),[4],-0.606
same,glycan array binding signal (z-score),[5],-0.08
same,glycan array binding signal (z-score),[6],1.36
same,glycan array binding signal (z-score),[7],-0.679
same,glycan array binding signal (z-score),[8],0.895
same,glycan array binding signal (z-score),[9],-0.544
same,glycan array binding signal (z-score),[10],-0.374
same,glycan array binding signal (z-score),[11],-0.767
same,glycan array binding signal (z-score),[12],-0.654
same,glycan array binding signal (z-score),[13],0.31
same,glycan array binding signal (z-score),[14],-1.11
same,glycan array binding signal (z-score),[15],0.306
same,glycan array binding signal (z-score),[16],-0.77
same,glycan array binding signal (z-score),[17],-0.107
same,glycan array binding signal (z-score),[18],-0.518
same,glycan array binding signal (z-score),[19],-0.565
same,glycan array binding signal (z-score),[20],-0.418
same,glycan array binding signal (z-score),[21],1.33
same,glycan array binding signal (z-score),[22],-0.344
same,glycan array binding signal (z-score),[23],0.183
same,glycan array binding signal (z-score),[24],0.411
same,glycan array binding signal (z-score),[25],-0.061
same,glycan array binding signal (z-score),[26],0.286
same,glycan array binding signal (z-score),[27],-0.826
same,glycan array binding signal (z-score),[28],0.15
same,glycan array binding signal (z-score),[29],-0.261
same,glycan array binding signal (z-score),[30],-0.434
same,glycan array binding signal (z-score),[31],-0.471
same,glycan array binding signal (z-score),[32],-0.057
same,glycan array binding signal (z-score),[33],-0.381
same,glycan array binding signal (z-score),[34],-0.194
same,glycan array binding signal (z-score),[35],-0.461
same,glycan array binding signal (z-score),[36],-0.088
same,glycan array binding signal (z-score),[37],-0.219
same,glycan array binding signal (z-score),[38],1.26
same,glycan array binding signal (z-score),[39],0.478
same,glycan array binding signal (z-score),[40],-0.093
same,glycan array binding signal (z-score),[41],-0.424
same,glycan array binding signal (z-score),[42],-0.312
same,glycan array binding signal (z-score),[43],0.078
same,glycan array binding signal (z-score),[44],-0.078
same,glycan array binding signal (z-score),[45],-0.349
